Results from article PMC4336329 (PLoS ONE, 2015).
Screen size: about 310,000 compounds; about 2,200 (0.71%) showed an effect of 50% or more. Effects have a minus sign here. The list shows a part of the results.

molecular target: human ether-à-go-go-related gene (hERG) potassium channel (human, UniProt Q12809); assay: primary screen, population patch clamp on CHO cells stably expressing hERG
Experimental: Briefly, Chinese hamster ovary (CHO) cells stably expressing the hERG channel were dislodged from tissue culture flasks and dispensed into PPC plates. […] During the recording, background leak currents were estimated by a 100 ms step to -80 mV from an initial holding potential of -70 mV and subtracted from the subsequent current measurement. The campaign was conducted in two phases using slight differences in recording protocol. In the first phase, the initial voltage pulse used a 100 ms step to -30 mV from a holding potential of -70 mV, a 2 s conditioning step to +25 mV, and a 2 s test step to -30 mV. During the second phase of the screen, the potential during the conditioning step was raised to +45 mV. In both phases of the campaign, a secondary voltage pulse was applied using the same parameters as the second phase initial pulse. The initial and secondary pulses were applied in the absence of compound, and upon application of 1 μM and 10 μM test concentrations. Small molecule effects on hERG current density were quantified by […].

Chain of human ether-à-go-go-related gene (hERG) potassium channel (Q12809 whole entry, looked up): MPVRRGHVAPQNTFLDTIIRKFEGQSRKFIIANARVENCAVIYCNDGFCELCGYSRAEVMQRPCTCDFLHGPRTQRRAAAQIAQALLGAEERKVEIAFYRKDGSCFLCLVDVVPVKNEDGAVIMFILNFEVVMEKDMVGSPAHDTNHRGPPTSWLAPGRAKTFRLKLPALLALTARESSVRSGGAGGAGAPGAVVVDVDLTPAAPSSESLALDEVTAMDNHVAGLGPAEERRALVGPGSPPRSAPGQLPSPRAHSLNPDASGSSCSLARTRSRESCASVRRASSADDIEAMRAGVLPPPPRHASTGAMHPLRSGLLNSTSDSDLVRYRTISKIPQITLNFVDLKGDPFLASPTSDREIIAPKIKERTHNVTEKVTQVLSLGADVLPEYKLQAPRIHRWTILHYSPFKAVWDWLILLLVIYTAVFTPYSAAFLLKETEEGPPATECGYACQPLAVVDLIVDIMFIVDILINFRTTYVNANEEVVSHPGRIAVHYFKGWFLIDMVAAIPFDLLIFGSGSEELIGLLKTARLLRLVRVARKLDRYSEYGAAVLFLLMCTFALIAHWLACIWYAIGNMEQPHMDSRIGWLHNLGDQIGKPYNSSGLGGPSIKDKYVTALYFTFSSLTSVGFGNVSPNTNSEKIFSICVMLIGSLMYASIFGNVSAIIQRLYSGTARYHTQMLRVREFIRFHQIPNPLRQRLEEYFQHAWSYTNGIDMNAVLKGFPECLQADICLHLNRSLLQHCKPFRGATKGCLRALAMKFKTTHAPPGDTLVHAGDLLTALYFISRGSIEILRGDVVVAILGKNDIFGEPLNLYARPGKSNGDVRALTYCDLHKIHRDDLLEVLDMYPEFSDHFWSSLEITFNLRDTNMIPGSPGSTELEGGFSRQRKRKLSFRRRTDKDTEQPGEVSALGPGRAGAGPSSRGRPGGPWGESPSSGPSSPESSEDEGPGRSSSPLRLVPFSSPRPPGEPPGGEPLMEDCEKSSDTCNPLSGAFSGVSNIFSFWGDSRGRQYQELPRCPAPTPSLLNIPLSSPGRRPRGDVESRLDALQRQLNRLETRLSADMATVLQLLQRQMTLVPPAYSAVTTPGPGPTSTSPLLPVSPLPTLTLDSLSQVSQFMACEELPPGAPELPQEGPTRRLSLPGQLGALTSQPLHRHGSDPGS

Point of comparison: `CCCc1nccn1S(=O)(=O)c1cc(OC)ccc1OC`, “hERG current change (%, negative = inhibition) at 1uM” value -2.82%. Against it:
- COc1ccc(OC)c(C2C(C(N)=O)=C(C)Nc3nc(-c4cccc(Cl)c4)nn32)c1 (centres unmarked) — higher, 7.07%
- O=S(=O)([N-]c1nc2ccccc2nc1-[n+]1ccccc1)c1ccc(Cl)cc1 — lower, -2.84%
- CCn1cc(C(=O)OCC(=O)Nc2c(C)n(C)n(-c3ccccc3)c2=O)c(=O)c2ccc(C)nc21 — lower, -2.92%
- O=C(Nc1cccc([N+](=O)[O-])c1)c1ccc(CN2CCOCC2)cc1 — higher, 10.2%
- Cc1ccc(S(=O)(=O)Nc2nc(C)c(C(=O)Nc3ccccc3)s2)cc1 — higher, 6.74%
- COC(=O)C1CCCN1C(C(=O)NC1CCCCC1)c1ccc(Cl)cc1 (centres unmarked) — higher, 7.3%
- CCOc1ccc(NC(=O)CSc2nnc(Cn3c(=O)sc4ccccc43)n2C)cc1 — higher, 2.72%
- CCOC(=O)CCNC(=O)N1CCCC(N(C)CCc2ccccc2)C1 (centres unmarked) — lower, -17.5%
- Cc1c([N+](=O)[O-])cc(S(=O)(=O)Nc2ccc(-c3ccc(N4CCCC4)nn3)cc2)cc1[N+](=O)[O-] — higher, 10%
- O=C(CN(C(=O)CCC(=O)Nc1ccccn1)c1cccc(F)c1)NCc1ccc2c(c1)OCO2 — higher, 2.28%
- CCCS(=O)(=O)N1CCC(C(=O)NCc2ccc(F)cc2)CC1 — higher, 20.2%
- O=C(CSC1=NS(=O)(=O)c2cc(Cl)ccc2N1)NCCc1ccccc1 — higher, 18.4%
- Nc1nnc(C(F)(F)F)s1 — higher, 4.92%
- Cc1[nH]n(-c2ccccc2)c(=O)c1/C=N/Nc1nncc(-c2ccccc2)n1 — higher, 10.2%
- COc1ccc(C(=O)NCc2ccccn2)cc1 — higher, 13.6%
- O=C(Nc1cccc(S(=O)(=O)NC2=NCCC2)c1)c1cc(-c2ccccn2)nc2ccccc12 — higher, 5.41%
- CN(CC(=O)N1CCCCCC1)S(=O)(=O)c1ccccc1 — higher, 14.4%
- COc1ccc2[nH]c3c(N4CCC(O)(c5cccc(C(F)(F)F)c5)CC4)ncnc3c2c1 — higher, 12.3%
- S=C(NCc1ccccc1)NC1CCCc2ccccc21 (centres unmarked) — higher, 11.6%
- CC(C)CC(=O)Nc1ccccc1N1CCCC1 — higher, 14.6%
- O=C(Nc1ccccc1F)c1ccncc1 — higher, 18.3%
- CCC(C)(C(=O)NC1CCCC1)N(Cc1ccco1)C(=O)Cc1cccs1 (centres unmarked) — higher, 15.2%
- COc1ccc(N2CCCn3c2nc2c3c(=O)n(Cc3ccccc3)c(=O)n2C)c(OC)c1 — lower, -5.18%
- Cc1ccccc1CN1CCC(Oc2ccc(C(=O)NCc3ccccn3)cc2)CC1 — higher, 13%
- COc1cc(OC)c2ccc(=O)oc2c1C(CC(=O)N1CCN(c2ccccc2)CC1)c1ccc2c(c1)OCO2 (centres unmarked) — higher, 10.4%
- Cn1cnc(S(=O)(=O)Nc2ccc(OC(F)F)cc2)c1 — higher, 17.7%
- Cc1ccc(S(=O)(=O)/N=C(\Sc2ccccc2)c2ccccc2)cc1 — higher, 10.2%
- Cc1ccnc(NC(=O)C2CCN(S(=O)(=O)c3cccc4nsnc34)CC2)c1 — higher, 11%
- O=C(CSc1ncn[nH]1)c1ccc2c(c1)OCO2 — lower, -8.57%
- CCN1CCN(c2ccc(S(=O)(=O)N3CCOCC3)cc2NC(=O)CCSC)CC1 — higher, 14%
- CCCc1cc(=O)oc2c3c(cc(OCC(=O)NCC4CCC(C(=O)O)CC4)c12)OC(C)(C)CC3 (centres unmarked) — higher, 6.22%
- Cc1ccc(N/C=C/C(=O)c2cccs2)cc1 — higher, 14.6%
- O=[N+]([O-])c1cccc(/C=N/N2CCN(c3ccccn3)CC2)c1 — higher, 13.4%
- Cc1ccccc1C(=O)Nc1nnc(S(=O)(=O)N2CCCCCC2)s1 — higher, 5.63%
- O=C(O)CSc1cc(NS(=O)(=O)c2ccc(Cl)cc2)c2ccccc2c1O — higher, 11.7%
- Cc1ccccc1Cc1c(C)nc2nc(SCC(=O)NCCCN3CCCCC3)nn2c1C — higher, 10%
- Cc1ccc(OCCCC(=O)Nc2nccs2)cc1 — higher, 15.9%
- Cc1cccc(C)c1OCc1cc(C(=O)N(Cc2c(C)nn(C)c2C)C2CC2)no1 — higher, 6.76%
- O=C1C=C(N2CCCCC2)c2ccccc2C1=O — higher, 10.1%
- COc1ccc(NC(=O)CS(=O)c2ccc(F)cc2)cc1 (centres unmarked) — higher, 13.9%
- COc1cc(OC)cc(C(=O)NNC(=S)Nc2ccccc2OC)c1 — higher, 11%
- CC(C)(C)N1C(=O)[C@H]2[C@@H](c3ccc(Br)cc3)N3C(=O)N(c4cccc(Br)c4)C(=O)[C@@]3(Cc3ccccc3)[C@H]2C1=O — higher, 8.1%
- O=C(Nc1cc(Sc2ccccn2)cc([N+](=O)[O-])c1)c1ccc([N+](=O)[O-])cc1 — higher, 10.7%
- Cc1cccc(NC(=O)CSc2nnc(NC(=O)C3CC3)s2)c1C — higher, 6.99%
- C=CCOc1c(CNc2ncn[nH]2)cccc1OC — higher, 15%
- COc1ccccc1NC(=O)c1sc2nc(N3CCOCC3)c3c(c2c1N)CCCC3 — higher, 17.6%
- COc1ccc(C2CC(c3ccc(F)cc3)n3nc(NC(=O)c4ccco4)nc3N2)cc1 (centres unmarked) — higher, 1.23%
- CCOC(=O)Cc1csc(NC(=O)CSc2cc(Cl)ccc2Cl)n1.O=C(O)C(=O)O — higher, 12.9%
- CC(=O)Nc1ccc(N/C=C/C(=O)c2ccc(Br)cc2)cc1 — higher, 12%
- CN(C(=O)CSc1ncnc2sccc12)C1CCS(=O)(=O)C1 (centres unmarked) — higher, 11.6%
- CC(C(=O)N1CCc2ccccc21)N1CCN(S(=O)(=O)c2cccs2)CC1 (centres unmarked) — higher, 12.2%
- COc1cc(C(=O)N2CCN(C(=O)C(Cc3cc(C)ccc3C)NC(C)=O)CC2)cc(OC)c1OC (centres unmarked) — lower, -8.34%
- Cn1c(SCC(=O)Nc2nc(C(C)(C)C)cs2)nnc1C1CC1 — higher, 4.9%
- C[C@@H](C(=O)NCc1ccc(S(C)(=O)=O)cc1)[C@@H]1C[C@@]1(C)[C@@H](NC(=O)OCc1ccccc1)c1ccccc1 — lower, -5.47%
- CCOc1ccc(-c2cc(C(=O)NCC3CCCO3)c3ccccc3n2)cc1 (centres unmarked) — higher, 3.62%
- Brc1c(CSc2nnc(-c3ccco3)o2)nc2ccccn12 — lower, -11.5%
- Cc1nn(-c2ccccc2)c(N2CCCC2)c1/C=N/NC(=O)c1cc(-c2ccccc2)nc2ccccc12 — higher, 4.69%
- O=C(COC(=O)c1ccco1)c1ccc(F)cc1 — higher, 10.3%
- CCC(C)CNC(=O)c1cccc(OC2CCN(CC(C)(C)C)CC2)c1 (centres unmarked) — higher, 10.3%
- CC(=O)c1c(C)n(-c2ccccc2)c2ccc(OCC(N)=O)cc12 — higher, 16.9%
- Cc1ccccc1CSc1nnc(C)c(=O)n1N — higher, 12.7%
- NS(=O)(=O)c1ccc(CCNC(=O)CSc2nc3ccccc3c(=O)n2CC2CCCO2)cc1 (centres unmarked) — higher, -2.27%
- COc1ccc(NC(=O)C2CC(c3ccc(Cl)cc3)=NO2)cc1 (centres unmarked) — higher, 7.77%
- Cc1ccc(C(=O)NCCSc2ccc(Cl)cc2)cc1[N+](=O)[O-] — higher, -1.08%
- O=C(NCc1ccccc1)N1CCC(Cc2ccccc2)CC1 — higher, 13.8%
- CCNC(=O)c1cc2c(=O)n3cccc(C)c3nc2n(Cc2ccc(C)cc2)c1=N — lower, -97.1%
- C=C(C)Cn1c(CCNC(=O)C(C)C)nc2ccccc21 — higher, 3.04%
- COCCn1c(SCC(=O)Nc2ccccc2)nc2c1c(=O)[nH]c(=O)n2C — higher, 4.36%
- COCCN(C(=S)Nc1cc(C)cc(C)c1)C(C)c1ccco1 (centres unmarked) — higher, 8.78%
- Cc1ccc(NC(=O)C(c2ccccc2)N2CCN(CC(=O)NC3CC3)CC2)cc1 (centres unmarked) — higher, 5.77%
- CNc1ccccc1NC(=O)CCn1c(=S)oc2ccccc21 — higher, 7.44%
- O=C(N/N=C/c1ccccc1)C(O)c1ccccc1 (centres unmarked) — higher, 14.8%
- O=S(=O)(NCc1cccnc1)c1ccc(Cl)cc1 — higher, 7.59%
- COc1ccc(N2CCN(c3ccc(N)cc3C#N)CC2)cc1 — higher, 2.25%
- Cc1cccnc1NC(=O)c1ccccc1-c1ccccc1C(=O)Nc1ncccc1C — lower, -15.9%
- O=C(c1ccccc1-c1nc(-c2ccccc2)no1)N1CCCC1 — higher, 3.39%
- O=C(Nc1cc(S(=O)(=O)N2CCOCC2)ccc1N1CCCC1)c1cc(=O)[nH]c2ccccc12 — higher, 9.3%
- CC1CN(c2ncnc3c2oc2ccccc23)CC(C)O1.Cl (centres unmarked) — higher, 12.3%
- O=S1(=O)CCC(N=Cc2ccc(-c3ccc(Cl)cc3)o2)C1 (centres unmarked) — higher, 6.29%
- COc1cccc(Nc2nc(C)cc(C)c2C#N)c1 — higher, 14.2%
- Cc1cccc(-n2c(SCC(=O)Nc3ccc4c(c3)OCO4)nnc2-c2ccoc2C)c1 — higher, 3.48%
- CCOc1cc(C2C(C(C)=O)=C(C)Nc3ncnn32)ccc1O (centres unmarked) — higher, 13.5%
- O=[N+]([O-])c1ccc(O)c(CSc2nnnn2-c2ccccc2)c1 — higher, 16.3%
- Cc1ccc(NS(=O)(=O)N2CCOCC2)cc1 — higher, 19.1%
- COc1ccccc1CN1CCN(C(=O)Cc2ccccc2)CC1 — higher, 3.58%
